Test results as given in PubChem BioAssay AID485313 (National Center for Advancing Translational Sciences (NCATS), 2010).
Values joined by “and” are separate entries in the source; they are usually repeats but may differ in a detail not shown here. Identical values can stand only once. Hit rate of the full screen: of about 320,000 compounds, about 7,600 (2.4%) were called active. Inconclusive means that the source gave no clear call. Such entries were picked first, then a sample of the others. The call rests on the fitted dose curve; in most records, active means well fitted activation curve with a large enough effect; inconclusive means small, poorly fitted or top-dose-only effect; inactive means no such curve, though single readings can be large or run the other way. Potencies of inconclusive entries are doubtful fits and often do not repeat.

test: qHTS Assay for NPC1 Promoter Activators; conditions: Huh7 NPC1 promoter luciferase reporter, 24 h; series mostly up to 9.22 µM; further: nearly all actives have a fitted effect of over 60% in size;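 on activation: reporter is driven by a mutant NPC1 promoter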
Outline: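 Luminescence read-out of NPC1 promoter-driven luciferase in stably transfected Huh7 cells; compounds delivered in DMSO and left 24 h at 37C, 5% CO2, qHTS titration format.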
Potency means the concentration at half of the fitted maximal effect; tags describe the fitted curve by direction and shape.

SMILES | Potency
CC(=O)c1ccc(NC(=O)Nc2ccc(Cl)cc2)cc1 | active: 1.41 µM
O=C(Nc1ccc(Cl)c(Cl)c1)c1ccc2c(c1)OCO2 | active: 0.794 µM
Fc1ccc(NC(=S)Nc2cc(Cl)ccc2Cl)cc1 | inactive
COC(=O)c1ccc(-c2ccc(/C=N/NC(=O)CC3(C)OCCCO3)o2)cc1 | inconclusive: 3.16 µM [activator, single point]
Cc1ccc2nc(SCC(=O)NCc3ccc4c(c3)OCO4)nc(=O)n2c1 | inactive
O=C(Nc1ccccc1F)c1ccc2snnc2c1 | inconclusive: 2 µM [activator, partial curve]
CCC(C)(C)NC(=O)CCCSc1nc2ccccc2s1 | inconclusive: 3.98 µM [activator, partial curve]
CCOc1ccc(C(=O)/C=C/c2cc(OC)c(OC)c(OC)c2)cc1 | inactive
COC(=O)c1nc(NC(=S)NC(=O)c2cccs2)sc1C | inconclusive: 2.51 µM [activator, partial curve]
C=COCCNC(=O)Nc1ccc(Cl)c(Cl)c1 | inconclusive: 3.16 µM [activator, single point]
O=C(NOCc1ccccc1)c1ccc(Cl)cc1 | active: 0.708 µM
CC(=O)c1c(C)[nH]c(C(=O)Nc2cccc(C)c2C)c1C | inactive
Cc1cccc(NC(=O)c2cc(=O)c3ccccc3o2)n1 | inconclusive: 6.31 µM [activator, single point]
CN=c1scc(-c2ccccc2Br)n1/N=C/c1ccc[nH]1 | inconclusive: 0.112 µM [activator, full curve]
CC(C)(C)C(=O)OCc1cn(-c2ccccc2)nn1 | inconclusive: 5.62 µM [activator, single point]
CCn1cc(Br)c(C(=O)Nc2ccc(F)cc2F)n1 | inconclusive: 3.16 µM [activator, partial curve]
Cc1ccc(Nc2nc(N)nc(CSc3nncn3C)n2)cc1 | active: 3.16 µM
O=C(COC(=O)C1(c2cccc(F)c2)CCCC1)NCc1ccc2c(c1)OCO2 | inactive
Cc1ccc(C2/C(=C(\O)c3cnn(-c4ccccc4)c3C)C(=O)C(=O)N2CCN(C)C)o1 (stereo not drawn) | inconclusive: 3.16 µM [activator, partial curve]
Cc1cc(C)cc(C(=O)N2CCC3(CC2)NCCc2[nH]cnc23)c1 | inactive
Cc1nn(-c2ccccc2)c(/N=C/c2ccc(O)cc2)c1-c1ccccc1 | inconclusive: 3.16 µM [activator, partial curve]
O=[N+]([O-])c1ccc2nc(-c3ccc(Cl)cc3)[nH]c2c1 | active: 2 µM
C[C@@H]1C[C@H]2[C@@H]3C[C@H](F)C4=CC(=O)C=C[C@]4(C)[C@@]3(F)[C@@H](O)C[C@]2(C)[C@@]1(O)C(=O)COC(=O)C(C)(C)C | inactive
O=C(OCC#CCSc1nnc(-c2cccc3ccccc23)o1)c1ccc2ccccc2c1 | inactive
Cc1ccccc1CSc1nnc(-c2ccccn2)n1C | inconclusive: 3.55 µM [activator, partial curve]
Cc1ccc(NC(=O)N/C=C/c2ccc(Cl)cc2)cc1 | inconclusive: 3.98 µM [activator, single point]

SMILES | Potency
Clc1ccc2nc(-c3ccc(Br)s3)cn2c1 | inactive
O=C(CN1CCN(S(=O)(=O)c2ccc(F)cc2)CC1)Nc1ccc(F)cc1F | inactive
Cc1ccc(SCc2cn3c(C)csc3n2)cc1 | active: 0.631 µM
CC(=O)Nc1ccccc1OCC(=O)c1ccc2c(c1)OCO2 | active: 3.55 µM
CC(C)CN1C(=O)c2ccc(C(=O)Nc3nccs3)cc2C1=O | inconclusive: 3.16 µM [activator, single point]
O=C(CNS(=O)(=O)c1cccs1)Nc1ccc2c(c1)OCCO2 | inconclusive: 3.16 µM [activator, partial curve]
CCc1ccc(-c2ccc(C(=O)C(F)(F)F)[nH]2)cc1 | active: 2 µM
C=CCN1N=C(/C=C/c2ccc(OC)cc2)CCC1=O | inconclusive: 4.47 µM [activator, single point]
CCCOC(=O)c1ccc(OC(=O)c2ccco2)cc1 | inactive
O=C(Nc1ccccc1)Nc1ccccn1 | inconclusive: 2.24 µM [activator, partial curve] and inconclusive: 3.55 µM [activator, partial curve]
O=C(Nc1ccccc1)Nc1ncc([N+](=O)[O-])s1 | inconclusive: 0.282 µM [activator, full curve]
C/C(=N\Nc1nccnc1Cl)c1ccc(O)cc1 | inactive
c1ccc(-n2ncc3c(NCc4cccnc4)ncnc32)cc1 | inconclusive: 2.82 µM [activator, single point]
Fc1ccc(-c2nnc(CSc3nnc4ccccn34)o2)cc1 | inconclusive: 3.16 µM [activator, partial curve]
Cc1ccc(NC(=O)/C=C/c2ccc([N+](=O)[O-])s2)cc1 | inconclusive: 5.62 µM [activator, single point]
CC(C)(C)C(=O)OCc1nc(-c2ccc3c(c2)OCCO3)cs1 | active: 2.82 µM
C=CCNC(=O)c1ccc(-c2cccc([N+](=O)[O-])c2)o1 | inconclusive: 2.82 µM [activator, partial curve]
Cc1ccc(SC[C@H](c2ccccc2)N2CCN(C)CCC2=O)cc1 | inconclusive: 3.55 µM [activator, single point]
COc1ccc(NC2=CC(=O)N(C)C2=O)cc1 | inconclusive: 5.62 µM [activator, single point]
C=C(C)CSc1nc(N)c2c(C)c(C)sc2n1 | inconclusive: 2 µM [activator, partial curve]
COc1c(OC(C)=O)ccc(/C=C/c2ccc3ccccc3n2)c1[N+](=O)[O-] | inconclusive: 5.62 µM [activator, single point]
S=C(Nc1ccc(Cl)cc1)c1nc2ccccc2s1 | active: 3.98 µM
Cc1cccc(NC(=S)NC(=O)c2ccc(Br)o2)c1 | inconclusive: 5.01 µM [activator, single point]
O=C(NC(=S)Nc1ccc(Cl)cc1Cl)C1CC1 | inconclusive: 1.78 µM [activator, partial curve]
Cc1ccc(CNC(=O)COc2ccc(S(=O)(=O)N3CCCC3)cc2)cc1 | inactive
COc1ccc(OC)c(Nc2ncnc3c2cnn3-c2ccccc2)c1 | inactive

SMILES | Potency
Oc1[nH]c2ccccc2c1/C=N/c1nccs1 | inconclusive: 3.16 µM [activator, single point]
COc1ccc(-c2coc3cc(O)ccc3c2=O)cc1O | inconclusive: 5.62 µM [activator, single point]
FC(F)(F)c1cccc(-c2nc3nc(Cl)c(Cl)nc3[nH]2)c1 | inconclusive: 0.398 µM [activator, partial curve]
Nc1c(-c2ccccc2)c(CN2CCOCC2)nn1-c1ccccc1 | inactive
Cc1cccc(NC(=O)Nc2ccccc2)n1 | inconclusive: 3.55 µM [activator, partial curve]
COc1cc(/C=C2\Oc3cc(O)ccc3C2=O)ccc1O | active: 3.16 µM
Cc1ccc(/C=C/C(=O)NCCc2ccccc2)o1 | inconclusive: 3.55 µM [activator, single point]
COc1ccc(NC(=O)Nc2nc3ccccc3s2)cc1 | active: 1.78 µM
COc1ccc(-n2nc([N+](=O)[O-])c(=NCc3cccnc3)n2O)cc1 | active: 3.55 µM
O=C(CNS(=O)(=O)c1cccs1)N1CCc2ccccc2C1 | inconclusive: 3.16 µM [activator, single point]
COn1c(-c2ccccc2)nc2ccc(Cl)cc21 | inconclusive: 3.55 µM [activator, partial curve]
O=C(Nc1ccc(Br)cc1)c1cnc[nH]1 | inconclusive: 3.16 µM [activator, single point]
O=C(CSc1nccc(=O)[nH]1)N1CCN(c2ccccc2)CC1 | inactive
O=C(Nc1cccc(O)c1)c1cc(-c2ccccc2Cl)on1 | inconclusive: 5.62 µM [activator, single point]
Cc1cc(C(=O)OCC(=O)c2ccc3c(c2)OCCO3)c(C)o1 | inconclusive: 2.51 µM [activator, partial curve]
C/C(=N/N=C(\C)c1ccccc1O)c1ccccc1O | inconclusive: 5.62 µM [activator, single point]
COc1cc2c(cc1NC(=O)c1ccc3c(c1)OCO3)oc1ccccc12 | inconclusive: 3.55 µM [activator, single point]
Cc1cnc(C(=O)OCC(=O)c2ccc(Cl)cc2)cn1 | inactive
COc1ccc(/C=N/NC(=S)Nc2cccc(C(=O)O)c2)cc1 | active: 2 µM
COc1ccccc1C(=O)Nc1ccccc1SC(=O)c1ccccc1OC | inconclusive: 3.55 µM [activator, single point]
O=[N+]([O-])c1ccccc1N/N=C/c1ccc2c(c1)OCO2 | active: 0.501 µM
CCN1C/C(=C/c2cccs2)c2nc3ccccc3c(C(=O)O)c2C1 | inactive
CCN1CCN(CCC(=O)Nc2ccc(C)cc2)CC1 | inactive
COc1cc(C(=O)Oc2ccccc2/C=N/NC(=O)c2ccc(C)cc2)cc(OC)c1OC | inconclusive: 0.891 µM [activator, partial curve]
O=C(COC(=O)c1cccc(-n2cnnn2)c1)c1ccc(Br)cc1 | inconclusive: 3.98 µM [activator, partial curve]
O=c1c2ccccc2ncn1-c1ccc2c(c1)OCCO2 | inconclusive: 3.16 µM [activator, single point]
